Laboratory results reported in article PMC4336329 (PLoS ONE, 2015).
About 14,000 (4.5%) of roughly 310,000 compounds showed an effect of 50% or more. The effect is printed as a negative number. The list shows a part of the results.

Target: human ether-à-go-go-related gene (hERG) potassium channel (human, UniProt Q12809)
Experiment: primary screen, population patch clamp on CHO cells stably expressing hERG
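Note: peak tail current of the secondary pulse compared with the same well before compound.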

human ether-à-go-go-related gene (hERG) potassium channel, sequence (Q12809 whole entry, looked up): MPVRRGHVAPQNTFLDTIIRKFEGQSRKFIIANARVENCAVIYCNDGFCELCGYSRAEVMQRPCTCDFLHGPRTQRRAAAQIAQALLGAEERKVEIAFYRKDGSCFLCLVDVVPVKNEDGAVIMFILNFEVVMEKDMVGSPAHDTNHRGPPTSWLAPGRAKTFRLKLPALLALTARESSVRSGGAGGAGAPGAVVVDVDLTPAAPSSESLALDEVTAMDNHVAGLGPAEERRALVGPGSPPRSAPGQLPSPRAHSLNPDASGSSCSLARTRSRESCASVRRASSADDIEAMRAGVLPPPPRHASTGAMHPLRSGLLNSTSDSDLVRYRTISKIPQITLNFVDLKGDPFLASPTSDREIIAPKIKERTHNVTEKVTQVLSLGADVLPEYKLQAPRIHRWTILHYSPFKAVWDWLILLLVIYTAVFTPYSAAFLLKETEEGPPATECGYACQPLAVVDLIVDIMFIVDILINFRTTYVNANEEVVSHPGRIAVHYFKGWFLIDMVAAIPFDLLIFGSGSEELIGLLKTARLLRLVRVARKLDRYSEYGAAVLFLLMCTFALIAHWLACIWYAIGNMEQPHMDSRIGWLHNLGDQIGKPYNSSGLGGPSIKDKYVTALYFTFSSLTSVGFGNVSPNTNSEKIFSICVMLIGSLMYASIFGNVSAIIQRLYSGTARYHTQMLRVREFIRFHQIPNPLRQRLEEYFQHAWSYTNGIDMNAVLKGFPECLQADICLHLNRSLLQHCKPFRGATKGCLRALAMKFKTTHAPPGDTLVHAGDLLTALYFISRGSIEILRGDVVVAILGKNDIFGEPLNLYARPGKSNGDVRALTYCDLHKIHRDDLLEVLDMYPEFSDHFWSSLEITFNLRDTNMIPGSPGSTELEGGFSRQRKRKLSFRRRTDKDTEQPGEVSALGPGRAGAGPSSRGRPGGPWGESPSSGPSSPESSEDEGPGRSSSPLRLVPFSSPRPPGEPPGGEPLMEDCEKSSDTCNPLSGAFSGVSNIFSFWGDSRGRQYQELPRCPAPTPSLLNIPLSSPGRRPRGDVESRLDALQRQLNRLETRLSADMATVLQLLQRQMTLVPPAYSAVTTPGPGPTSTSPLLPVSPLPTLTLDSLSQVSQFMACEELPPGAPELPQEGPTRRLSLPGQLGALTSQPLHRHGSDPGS

| SMILES | hERG current change (%, negative = inhibition) at 10uM |
| --- | --- |
| Nc1ncnc(Nc2ccc(F)cc2)n1 | 5.46% |
| COc1ccc(-c2csc(NC(=O)CSCc3c(C)noc3C)n2)cc1OC | -4.4% |
| CCC1=NN(S(=O)(=O)c2ccc(C)cc2)C(O)(C(F)(F)F)C1 (centres unmarked) | 34.4% |
| CCOC(=O)C1=C(C)OC(N)=C(C(=O)OCC)C12C(=O)Nc1ccc(Br)cc12 (centres unmarked) | -7.78% |
| CCCCNC(=O)CN1C(=O)COc2ccc(S(=O)(=O)N3CCCCCC3)cc21 | -1.25% |
| CC1(C)c2ccccc2N2CC(=O)N(CC(N)=O)C21C (centres unmarked) | 0.123% |
| O=C(NCc1ccc(Cl)cc1)c1ccc(CS(=O)Cc2cccc(Cl)c2)o1 (centres unmarked) | -53.5% |
| Cc1ccc(NS(=O)(=O)c2cccc(C(=O)NNC(=O)NC3CCCCC3)c2)c(C)c1 | -14.8% |
| CS(=O)(=O)N1CCN(C(=O)c2cc(-c3cccnc3)nc3ccc(Br)cc23)CC1 | -17% |
| Cc1cccc(NC(=S)N2CCN(c3ccc(F)cc3)CC2)c1 | 2.16% |
| CCOc1cc2[nH]c(=O)n(CCCCC(=O)NCc3ccco3)c(=O)c2cc1OCC | 8.55% |
| CC1(C)C2CCC1(C)C(OC(=O)CCn1ccnc1)C2 (centres unmarked) | -25.5% |
| CC(NC(=O)CSC(=S)N1CCCC1)c1ccc(S(N)(=O)=O)cc1 (centres unmarked) | 7.66% |
| O=C(CNC(=O)c1cccs1)OCc1c(F)cccc1Cl | 12.8% |
| CC1CCCC(C)N1C(=O)COC(=O)c1nn(C)c(=O)c2ccccc12 (centres unmarked) | 1.93% |
| CCOC(=O)c1c(NC(=S)N2CCCCC2)sc2c1CCN(C(=O)OCC)C2 | -1.16% |
| COC(=O)/C=C/C(=O)Nc1ccc(O)c(Cl)c1 | 8.61% |
| COc1ccccc1S(=O)(=O)Nc1cc(C)nn1-c1ccc(C)cc1 | 3.18% |
| O=C1C2C3C=CC(C4CC34)C2C(=O)N1Cc1ccccc1 (centres unmarked) | 19.9% |

| SMILES | hERG current change (%, negative = inhibition) at 10uM |
| --- | --- |
| CCOc1ccc(CNC(=O)CCC(=O)n2nc(C)c3ccccc32)cc1 | 8.16% |
| Cc1cc(C)n2nc(S(=O)(=O)NCCc3ccccc3)nc2n1 | 0.291% |
| CCC(C)c1ccc(NC(=O)N2CCN(C(=O)C3CCCO3)CC2)cc1 (centres unmarked) | -5.31% |
| Cc1ccc(-c2nc(CSCC(=O)NCc3cccnc3)c(C)o2)cc1 | -15.3% |
| CN(C)S(=O)(=O)c1cc(C(=O)Nc2ccccc2C(=O)NC2CC2)ccc1Cl | -62.2% |
| CSc1nnc(NC(=O)c2ccc(S(=O)(=O)N3CCOCC3)cc2)s1 | 9.98% |
| O=C(CCCOc1ccc(Cl)cc1Cl)NN1CCOCC1 | -1.05% |
| Cc1ccc2[nH]c(=O)c(C(c3nnnn3Cc3ccccc3)N3CCc4ccccc43)cc2c1 (centres unmarked) | -15.7% |
| Cn1c(=O)c2c(SCC(=O)N3CCCC3)nc(CC(C)(C)C)nc2n(C)c1=O | -22.6% |
| Cc1ccc(C(C)C)c(OCC(=O)N2CCN(CC(=O)N3CCOCC3)CC2)c1 | 1.81% |
| CN(C)S(=O)(=O)c1ccc(C(=O)Nc2ccccc2C(=O)NCCCN2CCOCC2)cc1 | -4.13% |
| COC(=O)CN1C(=O)NC2(CCCc3ccccc32)C1=O (centres unmarked) | 0.795% |
| CN(C)S(=O)(=O)c1cccc(COC(=O)CN2C(=O)NC3(CCCC3)C2=O)c1 | -1.31% |
| COc1ccc(Cl)cc1NC(=O)CN(C)Cc1cccs1 | -2.71% |
| COc1ccc(-c2nnc3ccc(SCC(=O)Nc4nc5ccccc5s4)nn23)cc1OC | -11.9% |
| C[N+]1(C2CCC3CCCC2C3O)CCCC1.[I-] (centres unmarked) | -1.33% |
| COc1ccc(S(=O)(=O)N2CCCCCC2)cc1C(=O)N(C)CC(=O)Nc1ccc(Cl)c(Cl)c1 | -10.4% |
| CNc1nc(OCC(F)(F)F)nc(OCC(F)(F)F)n1 | -15.5% |
| O=C(CSc1nc2ccncc2[nH]1)Nc1ccccc1C(F)(F)F | -4.07% |

| SMILES | hERG current change (%, negative = inhibition) at 10uM |
| --- | --- |
| O=S(=O)(NCc1ccc(Cl)cc1)NCc1ccc(Cl)cc1 | 12.7% |
| COc1ccc2c(=O)c(C(=O)NCCc3ccccc3)c[nH]c2c1 | -7.4% |
| O=C(CCNc1cccc(Cl)c1)c1ccco1 | -30.2% |
| CC(=O)c1sc(-c2cccc(Cl)c2)nc1C | 33.3% |
| COC(=O)C1CCCN1S(=O)(=O)c1ccccc1NC(=O)c1cc(OC)c(OC)c(OC)c1 (centres unmarked) | 10.9% |
| COc1cc(C(=O)N2C(=O)CCC2=O)cc(OC)c1OC | 28.7% |
| CCOC(=O)[C@H]1[C@H]2COc3ccc(Br)cc3[C@@H]2N2C(=O)c3cc(Br)ccc3NC(=O)[C@@]12C | 12.6% |
| CCN(CC(=O)NCc1ccc(Cl)cc1)C(=O)CCC(=O)c1ccc(C)cc1 | -66.5% |
| Cc1cc(=O)oc2cc(O[C@@H]3O[C@H](CO)[C@@H](O)[C@H](O)[C@H]3O)ccc12 | 14.1% |
| CCCCN(C(=O)CSCC(=O)Nc1ccc(OC)cc1)c1c(N)n(CCC)c(=O)[nH]c1=O | 9.82% |
| CCCNC(=O)N1CCCC(C(N)=O)C1 (centres unmarked) | 21.5% |
| C=CCc1ccccc1OCCSc1nc2ccc([N+](=O)[O-])cc2s1 | 11% |
| CC1CCCN(S(=O)(=O)c2csc(C(N)=O)c2)C1 (centres unmarked) | 15.2% |
| O=C(CN(Cc1ccccc1)C(=O)CCC(=O)Nc1nccs1)NCc1ccco1 | -5.77% |
| Cc1ccc(NC(=O)CN2CCN(CCN=CC3=C(O)CC(C)(C)CC3=O)CC2)cc1 | -19.3% |
| C=CCOc1ccc(/C=C/C(=O)OCC(=O)N2CCCc3ccccc32)cc1 | -4.28% |
| Cc1ccc(C(=O)OCC(=O)Nc2nc(-c3ccccc3)cs2)cc1NC(=O)c1ccco1 | -23.1% |
| COc1ccc(S(=O)(=O)NCC(c2cccnc2)N2CCN(C)CC2)cc1OC (centres unmarked) | 10.7% |
